Experimental data taken from PubChem BioAssay AID445 (National Center for Advancing Translational Sciences (NCATS), 2006).
Hit rate of the full screen: of about 110,000 compounds, about 40 (0.04%) were called active. Inconclusive results, whose numbers are uncertain, are shown with a selection of clear calls. The call rests on the fitted dose curve; in most records, active means well fitted curve in the direction sought with a large enough effect in the signal ratio (not every such curve was filed as active); inconclusive means small, poorly fitted or top-dose-only effect, or a change in a side signal; inactive means flat fitted curve, though single readings scatter; the % refers to the signal ratio. Potencies beside an inconclusive call are fits to weak or partial responses and may not hold up.

test: IkB Signaling; conditions: ABC-DLBCL IkBa-CBG/CBR dual luciferase ratio (green luciferase fused to IkBa over red control in OCI-Ly3 lymphoma cells), 4 h; IkBa stabilization activation: at 57.1 µM (top of the series), scaled: untreated 0%, proteasome inhibitor 100% unless noted
Source text: NIH Molecular Libraries Screening Centers Network [MLSCN]
NIH Chemical Genomics Center [NCGC]
Nuclear factor kappa-B (NF-kappa-B) plays an important role in normal B cell development and survival. Diffuse large B cell lymphoma (DLBCL) is the most commonly observed type of non-Hodgkin's lymphoma. Gene expression analysis has identified an activated B cell-like subtype of DLBCL (ABC-DLBCL) which expresses known NF-kappa-B target genes. […] However, targets upstream of IKK have been largely unexplored and so nodes upstream of IKK in the NF-kappa-B pathway remain untested due to the lack of chemical probes.
A cell-sensor assay for I-kappa-B-alpha stabilization was developed with NIH investigator Dr. R. Eric Davis in Dr. Louis M. Staudt's laboratory. The assay uses green (CBG68) and red (CBR) emitting beetle luciferases [Chroma-Glo(TM) developed by Promega Corp.] where the green luciferase is fused to I-kappa-B-alpha and the red luciferase is present in its native state. Both luciferase genes are stably present in the OCI-Ly3 human ABC DLBCL cell line, but their expression is under the control of tetracycline-inducible promoters. Following the addition of doxycycline to induce expression of the luciferases, the green luminescence in control cultures rises only slowly because the CBG fusion partner I-kappa-B-alpha is targeted by IKK activity for rapid degradation. In contrast, green luminescence rises rapidly in the presence of proteasome inhibitors or IKK inhibitors. The rise in red luminescence of CBR is not affected by proteasome or IKK inhibitors, and serves as normalization for cell number and nonspecific effects. Compounds were screened as a concentration-titration series that ranged from 57 uM to 0.7 nM.
NCGC Assay Protocol Summary:
Cells were seeded in 1536-well plates at 5000 cells/3ul in IMDM medium containing 0.5% FBS, w/o phenol red, L-glutamine, 25 mM HEPES, 3 mg/ml sodium bicarbonate. After centrifugation for 1 min. at 1000 rpm, 23 nl of compounds or DMSO were delivered to each well using a pin tool. Then 1ul 80ng/ml doxycycline was dispensed into white solid 1536-well plates and the plates were incubated at 37C/5% C02 in a cell incubator for 4 hrs. Then 4 ul Chroma-Glo luminescent substrate mix (Promega) was added to each well. The plate was incubated at R.T. for 10-15 min. The plates were measured on a ViewLux plate reader for green luminescence (540/20 nm filter) and red luminescence (618/8 nm filter). The green and red luminescent signals were corrected for red and green luminescence filter overlap using previously determined filter calibration constants (determined using the procedure outlined in the Promega Technical Manual). The %Activity was determined from the ratio of corrected green/red luminescent values. Green luminescent and ratio %Activity was determined by normalizing to the difference in signal between basal cells (0% Activity) and cells incubated with 10 uM of the proteasome inhibitor MG-132 (100% Activity). Red luminescent %Activity was normalized to the difference between red luminesence in basal cells (0%Activity) and zero luminescence (-100% Activity).
Concentration-response curves were fitted to the signals arising from the green luminescence (I-kappa-B-alpha-luciferase fusion; IkB-luc) and the red luminescence (unfused luciferase; luc) as well as the calculated ratio. The concentration-effect curves were then classified based on curve quality (r2), response magnitude and degree of measured activity. Compounds were then categorized based on their concentration-response curves for all three datasets (Ikb-luc, luc and ratio).
Keywords: IKK, I-kappa-B, IkB, IkBa, cytotoxicity, luminescence, MLSMR, MLSCN, NIH Roadmap, qHTS, NCGC
Potency means the concentration at half of the fitted maximal effect.

Compound	IkBa stabilization activation	Potency
COc1cccc(NC(=O)C(=O)NCCc2csc3nc(-c4ccccc4C)nn23)c1	inconclusive: 4.76% [signal inhibitor]	
CCc1ccccc1N(c1nc(-c2ccc(OC)c(OC)c2)no1)c1nc(-c2ccc(OC)c(OC)c2)no1	inconclusive: 0.624% [signal inhibitor]	
COc1ccccc1CCNC(=O)C(=O)NCC(c1ccco1)S(=O)(=O)c1ccccc1 (stereo not drawn)	inactive: -1.03%	
Cn1c(=O)n(C)c2cc(NC(=O)c3cc4ccccc4o3)ccc21		inconclusive: 20 µM [signal inhibitor, partial curve]
Cc1ccc2ccc3cccc4ccc1c2c34	inactive: -1.41%	
COc1ccc(Nc2nc3ccccc3nc2NS(=O)(=O)c2ccc(Cl)cc2)cc1OC		inconclusive: 0.794 µM [signal inhibitor]
Cc1ccccc1C(=O)Nc1cccc(N)c1	inactive: 5.18%	
CCOC(=O)c1cccc(NC(=O)CSc2nc3cc4ccccc4cc3[nH]2)c1		inconclusive: 31.6 µM [rising, single point]
COc1ccccc1-c1cc(C(=O)NCCc2ccccc2)no1		inconclusive: 20 µM [signal inhibitor, partial curve]
C[C@H]1CCCC2(CC[N+](C)(CCC[N+](C)(C)C)CC2)C1 (stereo partly drawn)	inactive: -0.718% [at 11.4 µM, scaled: untreated 0%, proteasome inhibitor 100%]	
O=C(NC[C@H]1CCCCN1)c1cc(OCC(F)(F)F)ccc1OCC(F)(F)F	inactive	
COC(=O)c1ccc(CSc2nnc(N)s2)cc1	inactive: 0.228%	
CCC(C(=O)NCc1cccc(Br)c1)n1nc(C)c2c(C)n(-c3ccccc3)nc2c1=O (stereo not drawn)	inconclusive: -0.765% [signal inhibitor]	
O=S(=O)(Nc1cccc(F)c1)c1ccc2[nH]c3c(c2c1)CCCCC3	inconclusive: -8.17% [signal inhibitor]	
COc1ccc(C(=O)NCCCn2ccnc2)cc1	inactive: -0.453%	
CC(=O)Nc1ccc(NC(=O)c2cnn(-c3ccccc3)c2C2CCN(C(=O)OC(C)(C)C)CC2)cc1	inconclusive: 2.41% [signal inhibitor]	
COC(=O)COc1ccc(S(=O)(=O)Nc2ccc3c(c2)OCCO3)cc1Cl	inconclusive: -4.24% [signal inhibitor]	
COC(=O)c1c(SCC(=O)Nc2cccc(Cl)c2C)[nH]c2ccccc2c1=O	inconclusive: 4.63% [signal inhibitor]	
CN(C(=O)c1c2c(nc3ccccc13)C(=O)N(C1CCCCC1)C2)c1ccc(F)cc1		inconclusive: 31.6 µM [signal inhibitor]
Cc1ccc(S(=O)(=O)NCCc2csc3nc(-c4ccccc4F)nn23)cc1C	inconclusive: 0.7% [signal inhibitor]	
CCOC(=O)c1ccc(OCC(=O)c2ccc(O)cc2O)cc1	inactive: 0.267%	
COc1cccc(-c2nc(SCc3ccc(C)cc3)n3[nH]c(=O)cc3n2)c1	inactive: -2.48%	
CCOC(=O)c1c(C)oc2ncnc(N3CCN(c4ccccc4)CC3)c12	inconclusive: -0.956% [signal inhibitor]	

Compound	IkBa stabilization activation	Potency
Cc1ccc(NC(=O)c2ccccc2F)nc1		inconclusive: 25.1 µM [signal inhibitor, partial curve]
CC(NC(=O)C1CCN(S(=O)(=O)c2ccc3c(c2)oc(=O)n3C)CC1)c1ccccc1 (stereo not drawn)	inconclusive: 0.488% [signal inhibitor]	
CN(C)Cc1ccccc1-c1cc(NCc2ccccc2)ncn1	inactive: -1.38% [at 11.4 µM, scaled: untreated 0%, proteasome inhibitor 100%]	
COc1ccccc1NC1=NCC(=O)N1Cc1ccccc1		inconclusive: 25.1 µM [signal inhibitor, partial curve]
COc1ccccc1-c1nc(S(=O)(=O)c2ccccc2)c(N2CCC(C)CC2)o1	inconclusive: 1.01% [signal inhibitor]	
CN(C)Cc1ccccc1-c1cc(-n2ccnc2)ncn1	inactive: -3.28% [at 11.4 µM, scaled: untreated 0%, proteasome inhibitor 100%]	
O=C(c1cc(-c2cccc(O)c2)on1)N1CCN(C(c2ccccc2)c2ccccc2)CC1	inconclusive: 9.02% [signal inhibitor]	
CCS(=O)(=O)c1oc(-c2ccc(F)cc2)nc1S(=O)(=O)c1ccc(Br)cc1	inconclusive: -2.79% [signal inhibitor]	
CCOC(=O)c1sc(NC(=O)CSc2nncs2)c(C(=O)OCC)c1C	inactive: 1.09%	
CC(C)(C)C(=O)Nc1cccc(C(=O)OCc2cc(=O)n3nc(C4CC4)sc3n2)c1	inconclusive: 3.25% [signal inhibitor]	
Cc1ccccc1NC(=O)CCNC(=O)Cn1ccc2ccccc2c1=O	inactive: 0.158%	
N#Cc1sc2nc3c(c(-c4cccnc4)c2c1N)CCC3	inactive: -2.98%	
COc1cc(NC(=O)c2cc3ccc4cccnc4c3[nH]2)cc(OC)c1OC	inconclusive: 2.37% [signal inhibitor]	
CC1=C(\C=C/C(C)=C/C=C\C(C)=C\C(=O)Nc2ccc(O)cc2)C(C)(C)CCC1	inactive: 19.3%	
C=CCN1C(=O)C2C(C(=O)NCc3ccccc3)C3(C)C=CC2(O3)C1C(=O)NC(C)(C)C (stereo not drawn)	inactive: -1.17%	
CCOC(=O)c1ccc(NC(=O)CSc2nc(-c3cccs3)cc(C(F)(F)F)c2C#N)cc1	inconclusive: 6.46% [signal inhibitor]	
COC(=O)CN1C(=O)CSc2ccc(S(=O)(=O)Nc3c(C)cc(C)cc3C)cc21	inconclusive: 0.872% [signal inhibitor]	
CCS(=O)(=O)c1nc(S(=O)(=O)c2ccc(C)cc2)c(NCC(C)C)s1	inconclusive: 3.35% [signal inhibitor]	
COc1ccc(-c2coc3cc(O[C@@H]4O[C@@H](CO)[C@@H](O)[C@@H](O)[C@H]4O)cc(O)c3c2=O)cc1	inactive: -0.212% [at 11.4 µM, scaled: untreated 0%, proteasome inhibitor 100%]	
CCOC(=O)N1CCc2c(sc(NCc3sccc3C)c2C(=O)Nc2cc(Cl)ccc2OC)C1	inconclusive: 5.1% [signal inhibitor]	
O=C(O)CCC(=O)N1CCN(c2cccc(Cl)c2)CC1	inactive: 2.79%	
O=C1CN(C(=O)COc2ccc(Cl)cc2)C(c2ccc(F)cc2)c2cc(Br)ccc2N1 (stereo not drawn)	inconclusive: 13.4% [signal inhibitor]	
CC(=O)C1=C(c2ccc(Cl)c(Cl)c2)N(C(C)=O)n2cnnc2S1	inconclusive: 9.08% [signal inhibitor]	

Compound	IkBa stabilization activation	Potency
Cn1c(SCC(=O)Nc2ccc(N3CCOCC3)c(Cl)c2)nnc1-c1ccccc1	inactive: 0.617%	
Cc1ccc(NC(=O)N2CCN(Cc3nc4ccc(C)cc4o3)CC2)c(Cl)c1	inconclusive: 0.995% [signal inhibitor]	
COc1cc(OC)cc(C(=O)Nc2ccc3c(c2)OCCO3)c1		inconclusive: 25.1 µM [signal inhibitor, partial curve]
Cc1cccc(CNc2ccnc(-c3cccc(NS(C)(=O)=O)c3)n2)c1	inactive: -0.166% [at 11.4 µM, scaled: untreated 0%, proteasome inhibitor 100%]	
COc1ccc(-c2nc3sc(CCNC(=O)C(=O)Nc4ccc(C)c(F)c4)c(C)n3n2)cc1	inconclusive: 2.75% [signal inhibitor]	
CCc1ccc(S(=O)(=O)c2cn(C)c3cc(F)c(F)cc3c2=O)cc1	inconclusive: 1.24% [signal inhibitor]	
COc1ccc(OC)c(NC(=O)CN(c2ccc(OC)c(Cl)c2)S(C)(=O)=O)c1	inactive: 2.04%	
CCOc1ccc(NC(=O)Cn2c(=O)n(Cc3ccco3)c(=O)c3ccc(C(=O)NC4CCCC4)cc32)cc1	inconclusive: 15.6% [signal activator]	
NC(=O)C1(c2ccccc2)CCOCC1	inactive: 2.84%	
O=C1CC(c2cccc(Cl)c2Cl)c2cc3c(cc2N1)OCCO3 (stereo not drawn)	inconclusive: 10.6% [signal inhibitor]	
Cn1c(CSCc2ccc(F)cc2)nnc1SCC(=O)Nc1nccs1	inactive: 2.67%	
O=C(C1CCCN(S(=O)(=O)c2ccc(Cl)cc2)C1)N(Cc1cccs1)C1CC1 (stereo not drawn)	inconclusive: 6.04% [signal inhibitor]	
CCc1cc(-c2[nH]ncc2-c2ccc3c(c2)OCO3)c(O)cc1O	inconclusive: 4.91% [signal inhibitor]	
Cc1oc(-c2ccccc2Cl)nc1CS(=O)CC(=O)NCc1ccccc1Cl (stereo not drawn)	inconclusive: 3.37% [signal inhibitor]	
CCOC(=O)c1ccc(NC(=O)COc2cccc3c(=O)n(C)ccc23)cc1	inconclusive: 10.2% [signal inhibitor]	
Cc1cc(Cl)ccc1OCC(=O)N1CCC(c2nc3ccccc3o2)CC1	inconclusive: -0.465% [signal inhibitor]	
CCOc1ccc(NC(=O)N2CCC(c3ccc(C)cc3)C2)cc1 (stereo not drawn)	inactive: -2.23%	
C=CCn1c(SCc2ccc(OC)cc2)nnc1-c1cccnc1	inactive: 9.32%	
CN(Cc1ccco1)c1nc(-c2ccccc2Cl)nc2ccccc12	inactive: 1.77% [at 11.4 µM, scaled: untreated 0%, proteasome inhibitor 100%]	
COc1ccccc1CNC(=O)CSCc1nc(-c2ccc(OC)c(OC)c2)oc1C	inconclusive: 3.74% [signal inhibitor]	
CCCCNC(=O)c1sc(=S)n2c1[nH]c(=O)c1ccccc12	inconclusive: -1.14% [signal inhibitor]	
O=C(Nc1cccc(C(=O)OCc2cc(=O)n3c4c(sc3n2)CCCC4)c1)c1cccc(Cl)c1	inconclusive: 13.3% [signal inhibitor]	
